Assay in all cases: Primary Screen for Target Class Profiling of Small Molecule Inhibitors of Methyltransferases
The target of experiment [1] is Glycine N-methyltransferase (Homo sapiens) (UniProt Q14749). The note with it: purified enzyme, MTase-Glo SAH luminescence; measured here: GNMT inhibition; at 40 µM; stronger effect = lower value. The text has this:
(§1) PI: Matthew D. Hall Ph.D. and Quinlin M. Hanson Ph.D.
(§2) National Center for Advancing Translational Sciences (NCATS)
(§3) National Institute of Health (NIH), Rockville, MD
(§4) Target class profiling (TCP) is a chemical biology approach amenable to investigating understudied biological targets. TCP is achieved by developing a generalizable assay platform and applying it to screen a curated set of compound libraries against representative members of a target class. Small molecule methyltransferases (SMMTase) are a subclass of methyltransferase that act on metabolites to modulate signaling pathways, metabolize xenobiotics, or balance the available methyl pool. We screened four curated libraries totaling 27,574 unique compounds against the SMMTases nicotinamide N-methyltransferase (NNMT), phenylethanolamine N-methyltransferase (PNMT), histamine N-methyltransferase (HNMT), glycine N-methyltransferase (GNMT), catechol O-methyltransferase (COMT), and guanidinoacetate N-methyltransferase (GAMT). The data generated by this TCP can be leveraged for informed tool molecule development. For example, in the associated publication we identified a chemotype of HNMT-selective inhibitors. Additionally, we identified a putative SMMTase-selective inhibitor with potential as a tool molecule for studying broader methyltransferase biology.
(§5) High-through put screening assays were developed at the National Center for Advancing Translational Science (NCATS) for the enzymes NNMT, PNMT, HNMT, GNMT, COMT, and GAMT. Enzymatic activity was measured as a function of SAM cofactor conversion using the MTase Glo kit (Promega) for all enzymes. All assays were performed in 1536-well format with substrates and SAM concentrations at KM values. Enzyme concentration and assay timing were optimized for 10-20% SAM conversion. Initial screening of 27,574 compounds was done as single-point assays using the highest compound concentration (40 uM). […] These compounds were replated in 11-point dose response and assayed against NNMT, PNMT, HNMT, GNMT, COMT, GAMT, and a counter-assay. The IC50 and efficacy (maximal response) values were determined for each dose-response curve. These values are also accounted for in the area under the curve (AUC) values.
(§6) PROTOCOL TABLE (as described by Inglese J, Shamu CE and Guy RK. 2007)
(§7) SEQUENCE No. (e.g., 1, 2, 3, etc.); […] (e.g., Cells, Incubation, Reagent, etc.); VALUE; DESCRIPTION.
(§8) 1; Reagent; 2 uL; SMMTase Enzyme (2x) in reaction buffer, columns 1- 48.
(§9) 2; Reagent; 1 uL; SAM (4x) in reaction buffer, columns 1-48.
(§10) 3; Controls; 23 nL; DMSO in column 4; sinefungin in DMSO (0 uM - 40 uM) in 7-point 1:2 dilution series (n = 2) in column 2.
(§11) 4; Compounds; 23 nL; Columns 5-48.
(§12) 5; Reagent; 1 uL; Substrate (4x) in reaction buffer, columns 2-48.
(§13) 6; Time; 20-30 min; Incubation.
(§14) 7; Reagent; 1 uL; MTase-Glo reagent (5X), columns 1-48.
(§15) 8; Time; 30 min; Incubation.
(§16) 9; Reagent; 5 uL; MTase-Glo Detection reagent, columns 1-48.
(§17) 10; Time; 30 min; Incubation, luminescence evolution.
(§18) 11; Detection; Luminescence; ViewLux uHTS Microplate Imager (PerkinElmer).
(§19) NOTES (numbers refer to Sequence numbers above)
(§20) 1, 2, 5. White Medium Binding Greiner 1536-well plates (Cat #789175-F, Greiner Bio-One, Monroe, NC); Reaction buffer: 50 mM Tris, pH 8.0, 3 mM MgCl2, 1 mM EDTA, 50 mM NaCl, 1 mM DTT, and 0.1 mg/mL BSA. Evaporation was prevented by covering assay plates with metal lids containing holes to allow gas diffusion.
(§21) 1. Six SMMTase were profiled: HNMT, GNMT, PNMT, COMT, NNMT, GAMT
(§22) 5. The corresponding substrate was used for each enzyme: HNMT - 5.3 uM Histamine; GNMT - >500 uM Glycine; PNMT - 16.2 uM Norephinephrine; COMT - 13.7 uM Norephinephrine; NNMT - 3.8 uM Nicotinamide; GAMT - 2.5 uM Guanidinoacetate.6, 8, 10. Room temperature
(§23) 6. Final reaction conditions: 10 nM COMT, 5 uM SAM, 15 uM norepinephrine, 50 mM Tris, pH 8.0, 3 mM MgCl2, 1 mM EDTA, 50 mM NaCl, 1 mM DTT, and 0.1 mg/mL BSA; refer to tables 2 and S1 for specific timing.
8. […]

Experiment [2] addresses Guanidinoacetate N-methyltransferase (Homo sapiens) (UniProt Q14353). To be noted: purified enzyme, MTase-Glo SAH luminescence; measured here: GAMT inhibition; at 40 µM; stronger effect = lower value.
Description: as §1, §2, §3, §4, §5, §6, §7, §8, §9, §10, §11, §12, §13, §14, §15, §16, §17, §18, §19, §20, §21, §22, §23
8. […]

The target in experiment [3] is Histamine N-methyltransferase (Homo sapiens) (UniProt P50135). The note with it: purified enzyme, MTase-Glo SAH luminescence; measured here: HNMT inhibition; at 40 µM; stronger effect = lower value.
Description: as §1, §2, §3, §4, §5, §6, §7, §8, §9, §10, §11, §12, §13, §14, §15, §16, §17, §18, §19, §20, §21, §22, §23
8. […]

Experiment [4] concerns the target Nicotinamide N-methyltransferase (Homo sapiens) (UniProt P40261). To be noted: purified enzyme, MTase-Glo SAH luminescence; measured here: NNMT inhibition; at 40 µM; stronger effect = lower value.
Description: as §1, §2, §3, §4, §5, §6, §7, §8, §9, §10, §11, §12, §13, §14, §15, §16, §17, §18, §19, §20, §21, §22, §23
8. […]

Experiment [5] deals with Phenylethanolamine N-methyltransferase (Homo sapiens) (UniProt P11086). The note with it: purified enzyme, MTase-Glo SAH luminescence; measured here: PNMT inhibition; at 40 µM; stronger effect = lower value.
Description: as §1, §2, §3, §4, §5, §6, §7, §8, §9, §10, §11, §12, §13, §14, §15, §16, §17, §18, §19, §20, §21, §22, §23
8. […]

The results in this text go back to PubChem BioAssay AID1745853 (National Center for Advancing Translational Sciences (NCATS), 2022).

Several values for one entry are separate records, joined by “and”; a condition that tells them apart may be missing. Equal values may be shown once. The list shows a part of the results. Further columns of the screen follow, without active or inactive calls.
% is set by controls: 0 for no effect and ±100 for the full control effect.

Consider `COc1cc(O)ccc1OCCNCC(O)COc1cccc2[nH]c3ccccc3c12` (stereo not given), for which the activity change, negative = inhibition in experiment [1] is -25.3%; in experiment [2], -30.6%; in experiment [3], -46.7%; in experiment [4], -33.6%; in experiment [5], -41.3%.

Consider `Cn1c(=O)c2ccc(C(=O)NC3CCCCC3)cc2n2c(=O)n(Cc3ccc(Cl)cc3)nc12`, for which the activity change, negative = inhibition was -2.62% in experiment [1]; 3.76% in experiment [2]; 1.26% in experiment [3]; 0.425% in experiment [4]; 2.26% in experiment [5].

For `Cc1ccc(C)c(S(=O)(=O)N2[C@@H]3CC[C@H]2CC(NC(=O)c2ccc(F)cc2)C3)c1` (stereo not given in full), the activity change, negative = inhibition in experiment [1] was -7.48%; in experiment [2], -9.64%; in experiment [3], -7.37%; in experiment [4], -13.3%; in experiment [5] it was -2.73%.

On to `Cc1nnc([C@H]2CCN(C3CCN(C)CC3)C2)o1`, for which the activity change, negative = inhibition in experiment [1] is -1.94%; in experiment [2], -4.02%; in experiment [3], -1.97%; in experiment [4] it was -4.5%; in experiment [5] it was -17.3%.

Take `COc1cc(C)c(C(=O)O[C@@H]2[C@H](O)[C@@H](CO)O[C@H]2n2ccc(=O)[nH]c2=O)c(OC)c1`: the activity change, negative = inhibition in experiment [1] is -0.445%; in experiment [2] it was 4.17%; in experiment [3], 2.13%; in experiment [4], -8.03%; in experiment [5], 2.18%.

For the compound `CCc1cc2c(cc3n2CC(C)(C(=O)NC2CCCCCC2)N(Cc2ccccc2F)C3=O)s1` (stereo not given), the activity change, negative = inhibition in experiment [1] was -1.22%; in experiment [2] it was 3.38%; in experiment [3], -1.03%; in experiment [4], -2%; in experiment [5] it was -4.27%.

As to `CC(C)(C)c1ccc(CN2CC3(COCC2=O)CN(c2cnccn2)C3)cc1`, the activity change, negative = inhibition was -9.48% in experiment [1]; 2.01% in experiment [2]; -2.58% in experiment [3]; -20.2% in experiment [4]; -3.73% in experiment [5].

On to `COC(=O)c1cc2c(C(F)(F)F)cc(-c3ccccc3)cc2n1O`, for which the activity change, negative = inhibition in experiment [1] was -1.95%; in experiment [2] it was 8.5%; in experiment [3] it was 5.84%; in experiment [4], -20.9%; in experiment [5], 2.16%.

As for `Cn1ncc(N2CCC(C(=O)N3CCC(C(N)=O)(N4CCCCC4)CC3)C2)cc1=O` (stereo not given), the activity change, negative = inhibition was -3.05% in experiment [1]; -6.54% in experiment [2]; -3.02% in experiment [3]; -9.32% in experiment [4]; -16.2% in experiment [5].

On to `COc1ccc2cc3n(c2c1)CC(C)(C(=O)NCC1CCCO1)N(Cc1ccc2c(c1)OCO2)C3=O` (stereo not given), for which the activity change, negative = inhibition in experiment [1] worked out at 3.52%; in experiment [2] it was 1.59%; in experiment [3], 5.34%; in experiment [4], 8.92%; in experiment [5], 1.68%.

For the compound `COc1ccc(NC(=O)c2c(C)nc3n2CCC(Nc2ccccc2C)C3)cn1` (stereo not given), the activity change, negative = inhibition in experiment [1] was -10.1%; in experiment [2], -5.2%; in experiment [3], -15.6%; in experiment [4], -8.87%; in experiment [5] it was -9.53%.

Consider `O=C(Cn1nc2n(Cc3ccc(F)cc3)c(=O)c3ccccc3n2c1=O)Nc1cccc(F)c1`, for which the activity change, negative = inhibition in experiment [1] is 1.83%; in experiment [2], 3.45%; in experiment [3], 9.76%; in experiment [4], -0.012%; in experiment [5] it was 3.18%.

With `CCCCN(C)C(=O)Cn1c(=O)oc2cc(S(=O)(=O)N3CC(C)CC(C)C3)ccc21` (stereo not given), the activity change, negative = inhibition in experiment [1] is -5.71%; in experiment [2], -24.9%; in experiment [3] it was 6.26%; in experiment [4] it was 5.2%; in experiment [5] it was -2.76%.

In the case of `CS(=O)(=O)CCNC(=O)C1CCCN(C2CCN(Cc3cccnc3)CC2)C1` (stereo not given), the activity change, negative = inhibition in experiment [1] was -5.11%; in experiment [2] it was -2.53%; in experiment [3], -2.52%; in experiment [4], -3.01%; in experiment [5] it was -5.89%.

Turning to `Cc1cc(Nc2ccc(NC(=O)c3ccc(Nc4ccnc5ccccc45)cc3)cc2)nc(N)n1`, the activity change, negative = inhibition in experiment [1] was -13.1% and -19.8%; in experiment [2], -40.1%; in experiment [3] it was -51.9% and -72.5%; in experiment [4] it was -6.74% and -55.4%; in experiment [5] it was 23.5% and -27.1%.
